No constants are given. Whether binding was seen depends on the method and setting. In cells and extracts the contact can be indirect. Some entries that bind do so weakly or less than the wild type. For some assays here: Tags and fused reporters may be left off the sequences shown. One block for each binder: values may come before it.
Tests used:
[1] = molecular target: T1, 3xFlag-KDM2B (pCMV-3xFlag-KDM2B) (UniProt Q8NHM5); test: co-IP; pCMV-3xFlag-KDM2B and pCGN-HA-SRF (full length or truncations) transfected into 293T cells (cell line of Fig. 3e not named); IP with anti-Flag (KDM2B), inverse IP by HA-SRF; 0.5% NP40 lysis buffer, overnight at 4 °C
T1 sequence: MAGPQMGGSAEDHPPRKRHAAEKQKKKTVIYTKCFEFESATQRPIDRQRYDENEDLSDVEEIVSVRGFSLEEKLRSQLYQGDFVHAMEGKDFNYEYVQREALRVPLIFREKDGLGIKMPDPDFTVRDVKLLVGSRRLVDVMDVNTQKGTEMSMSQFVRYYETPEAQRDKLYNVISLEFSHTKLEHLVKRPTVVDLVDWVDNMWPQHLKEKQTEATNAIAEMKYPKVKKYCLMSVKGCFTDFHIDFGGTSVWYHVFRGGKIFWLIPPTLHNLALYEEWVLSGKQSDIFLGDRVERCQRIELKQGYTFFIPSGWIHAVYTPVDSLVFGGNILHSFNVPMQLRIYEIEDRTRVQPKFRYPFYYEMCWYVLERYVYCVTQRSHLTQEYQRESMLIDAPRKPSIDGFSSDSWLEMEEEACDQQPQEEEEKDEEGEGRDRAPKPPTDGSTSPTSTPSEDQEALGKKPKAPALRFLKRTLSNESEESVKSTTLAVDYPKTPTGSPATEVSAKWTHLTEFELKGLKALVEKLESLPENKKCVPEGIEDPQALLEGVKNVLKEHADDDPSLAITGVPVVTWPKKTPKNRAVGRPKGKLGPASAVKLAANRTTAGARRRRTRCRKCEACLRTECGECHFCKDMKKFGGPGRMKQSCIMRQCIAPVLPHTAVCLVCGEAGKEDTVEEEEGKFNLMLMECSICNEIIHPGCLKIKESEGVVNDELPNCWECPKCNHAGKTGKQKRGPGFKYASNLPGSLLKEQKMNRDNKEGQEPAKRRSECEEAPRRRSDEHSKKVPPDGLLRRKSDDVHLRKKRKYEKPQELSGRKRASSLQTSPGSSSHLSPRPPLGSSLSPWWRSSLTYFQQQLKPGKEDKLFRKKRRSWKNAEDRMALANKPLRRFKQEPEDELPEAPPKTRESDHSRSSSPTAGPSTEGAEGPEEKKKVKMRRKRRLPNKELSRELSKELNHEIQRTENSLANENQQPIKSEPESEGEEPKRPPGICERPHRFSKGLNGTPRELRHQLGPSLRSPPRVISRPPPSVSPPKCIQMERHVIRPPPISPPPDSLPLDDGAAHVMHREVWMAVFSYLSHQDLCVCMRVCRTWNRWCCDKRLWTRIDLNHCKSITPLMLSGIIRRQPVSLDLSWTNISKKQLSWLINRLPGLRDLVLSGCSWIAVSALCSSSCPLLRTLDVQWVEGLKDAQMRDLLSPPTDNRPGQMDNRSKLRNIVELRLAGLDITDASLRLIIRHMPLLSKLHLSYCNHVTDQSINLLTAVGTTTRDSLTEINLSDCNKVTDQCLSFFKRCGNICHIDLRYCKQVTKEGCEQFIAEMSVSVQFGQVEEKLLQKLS

[2] = molecular target: T2, serum response factor (SRF), endogenous in C2C12 cells (mouse (endogenous in C2C12)) (UniProt Q9JM73); test: co-IP; endogenous proteins in undifferentiated C2C12 cells; 0.5% NP40 lysis buffer, antibody on protein A/G agarose overnight at 4 °C
T2 sequence: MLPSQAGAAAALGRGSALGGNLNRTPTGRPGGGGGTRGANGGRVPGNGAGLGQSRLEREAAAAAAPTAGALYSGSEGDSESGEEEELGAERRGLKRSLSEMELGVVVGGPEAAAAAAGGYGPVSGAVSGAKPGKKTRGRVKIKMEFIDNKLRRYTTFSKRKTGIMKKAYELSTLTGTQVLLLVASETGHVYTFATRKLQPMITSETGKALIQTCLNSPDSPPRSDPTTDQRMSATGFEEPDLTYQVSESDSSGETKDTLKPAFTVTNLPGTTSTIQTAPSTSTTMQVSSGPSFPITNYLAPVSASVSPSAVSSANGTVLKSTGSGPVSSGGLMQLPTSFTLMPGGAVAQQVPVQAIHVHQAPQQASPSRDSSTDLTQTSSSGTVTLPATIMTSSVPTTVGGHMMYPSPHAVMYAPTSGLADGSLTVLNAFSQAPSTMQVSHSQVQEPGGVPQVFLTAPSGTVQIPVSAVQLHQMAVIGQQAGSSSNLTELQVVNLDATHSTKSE

[3] = molecular target: T3, HA-tagged SRF, full length (pCGN-SRF-HA) (UniProt P11831); test: co-IP; pCMV-3xFlag-KDM2B and pCGN-HA-SRF (full length or truncations) transfected into 293T cells (cell line of Fig. 3e not named); IP with anti-Flag (KDM2B), inverse IP by HA-SRF; 0.5% NP40 lysis buffer, overnight at 4 °C
T3 sequence: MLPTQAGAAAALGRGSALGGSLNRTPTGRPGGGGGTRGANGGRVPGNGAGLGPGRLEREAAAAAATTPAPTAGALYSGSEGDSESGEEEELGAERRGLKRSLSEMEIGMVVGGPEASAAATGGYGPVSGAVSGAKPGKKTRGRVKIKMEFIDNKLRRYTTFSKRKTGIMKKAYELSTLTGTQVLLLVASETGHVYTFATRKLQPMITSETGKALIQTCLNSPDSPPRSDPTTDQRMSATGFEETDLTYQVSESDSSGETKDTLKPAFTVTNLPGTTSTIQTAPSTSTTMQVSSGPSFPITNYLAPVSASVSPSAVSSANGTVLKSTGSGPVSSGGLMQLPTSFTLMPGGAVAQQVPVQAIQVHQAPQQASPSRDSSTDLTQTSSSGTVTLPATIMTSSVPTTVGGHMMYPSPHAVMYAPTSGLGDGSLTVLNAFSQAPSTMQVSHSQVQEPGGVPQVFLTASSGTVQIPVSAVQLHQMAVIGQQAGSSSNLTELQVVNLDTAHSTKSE

B1: SRF-A (SRF A domain, amino acids 1 to 133) (domain or fragment, UniProt P11831 1-133)
chain: MLPTQAGAAAALGRGSALGGSLNRTPTGRPGGGGGTRGANGGRVPGNGAGLGPGRLEREAAAAAATTPAPTAGALYSGSEGDSESGEEEELGAERRGLKRSLSEMEIGMVVGGPEASAAATGGYGPVSGAVSG
binding [1]: no binding

B2: KDM2B, endogenous in C2C12 cells (protein, UniProt Q6P1G2 1-1309)
chain: MEAEKDSGRRLRAIDRQRYDENEDLSDVEEIVSVRGFSLEEKLRSQLYQGDFVHAMEGKDFNYEYVQREALRVPLVFRDKDGLGIKMPDPDFTVRDVKLLVGSRRLVDVMDVNTQKGTEMSMSQFVRYYETPEAQRDKLYNVISLEFSHTKLEHLVKRPTVVDLVDWVDNMWPQHLKEKQTEATNALAEMKYPKVKKYCLMSVKGCFTDFHIDFGGTSVWYHVFRGGKIFWLIPPTLHNLALYEEWVLSGKQSDIFLGDRVERCQRIELKQGYTFFIPSGWIHAVYTPVDSLVFGGNILHSFNVPMQLRIYEIEDRTRVQPKFRYPFYYEMCWYVLERYVYCVTQRSYLTQEYQRELMLIDAPRKTSVDGFSSDSWLDMEEESCEQQPQEEEEEEEDKEEEGDGADKTPKPPTDDPTSPTSTPPEDQDSTGKKPKAPAIRFLKRTLSNESEESVKSTSMPTDDPKTPTGSPATEVSTKWTHLTEFELKGLKALVEKLESLPENKKCVPEGIEDPQALLEGVKNVLKEHVDDDPTLAITGVPVVSWPKKTAKNRVVGRPKGKLGPASAVKLAANRTTAGARRRRTRCRKCEACLRTECGECHFCKDMKKFGGPGRMKQSCIMRQCIAPVLPHTAVCLVCGEAGKEDTVEEEEGKFNLMLMECSICNEIIHPGCLKIKESEGVVNDELPNCWECPKCNHAGKTGKQKRGPGFKYASNLPGSLLKEQKMNRDNKEGQEPAKRRSECEEAPRRRSDEHPKKVPADGILRRKSDDVHLRRKRKYEKPQELSGRKRASSLQTSPGSSSHLSPRPPLGSSLSPWWRSSLTYFQQQLKPGKEDKLFRKKRRSWKNAEDRLSLANKPLRRFKQEPEDDLPEAPPKTRESDQSRSSSPTAGPSTEGAEGPEEKKKVKMRRKRRLVNKELSKELSKELNHEIQKTESTLAHESQQPIKSEPESENDEPKRPLSHCERPHRFSKGLNGTPRELRHSLGPGLRSPPRVMSRPPPSASPPKCIQMERHVIRPPPISPPPDSLPLDDGAAHVMHREVWMAVFSYLSHRDLCVCMRVCRTWNRWCCDKRLWTRIDLNRCKSITPLMLSGIIRRQPVSLDLSWTNISKKQLSWLINRLPGLRDLVLSGCSWIAVSALCSSSCPLLRTLDVQWVEGLKDAQMRDLLSPPTDNRPGQMDNRSKLRNIVELRLAGLDITDVSLRLIIRHMPLLSKLQLSYCNHINDQSINLLTAVGTTTRDSLTEVNLSDCNKVTDLCLSFFKRCGNICHIDLRYCKQVTKEGCEQFIAEMSVSVQFGQVEEKLLQKLS
binding [2]: binds

B5: SRF-C (SRF C domain, amino acids 222 to 508) (domain or fragment, UniProt P11831 222-508)
chain: PDSPPRSDPTTDQRMSATGFEETDLTYQVSESDSSGETKDTLKPAFTVTNLPGTTSTIQTAPSTSTTMQVSSGPSFPITNYLAPVSASVSPSAVSSANGTVLKSTGSGPVSSGGLMQLPTSFTLMPGGAVAQQVPVQAIQVHQAPQQASPSRDSSTDLTQTSSSGTVTLPATIMTSSVPTTVGGHMMYPSPHAVMYAPTSGLGDGSLTVLNAFSQAPSTMQVSHSQVQEPGGVPQVFLTASSGTVQIPVSAVQLHQMAVIGQQAGSSSNLTELQVVNLDTAHSTKSE
binding [1]: no binding

Second part, the binder after the results:

binding [1]: binds
B3: HA-tagged SRF, full length (pCGN-SRF-HA) (protein, UniProt P11831 1-508)
chain: T3 sequence

binding [3]: binds
B4: 3xFlag-KDM2B (pCMV-3xFlag-KDM2B) (protein, UniProt Q8NHM5 1-1336)
chain: T1 sequence

From PMC8080764
